Reference: a compilation of properties of binary mixtures (doi:10.1021/acs.jced.9b00648)
Some of these densities may be calculated back from excess volumes.

Test: xn = mol fraction of the nth substance listed
Conditions: 100 kPa

CC#N + C=C[n+]1ccn(CC(N)=O)c1.O=S(=O)([N-]S(=O)(=O)C(F)(F)F)C(F)(F)F
x2 = 0
Conditions	mass density [kg/m3]
298.15 K	777.7
303.15 K	772.3
308.15 K	766.8
313.15 K	761.3
318.15 K	755.7
328.15 K	744.5
333.15 K	738.9

C=C[n+]1ccn(CC(N)=O)c1.O=S(=O)([N-]S(=O)(=O)C(F)(F)F)C(F)(F)F + CC#N
mass density [kg/m3]
Conditions	298.15 K	303.15 K	308.15 K	313.15 K	318.15 K	323.15 K	328.15 K	333.15 K
x1 = 0.01	–	820.1	–	809.1	–	798	792.4	786.7
x1 = 0.1	1090.5	–	1079.6	–	1068.6	1063	–	1052
x1 = 0.201	1258.4	–	–	1242.3	1237	1231.6	1226.3	–
x1 = 0.3026	1361.3	1356	1350.8	1345.5	1340.3	–	1329	1323.2
x1 = 0.4011	1426.7	–	1416.4	–	1406.1	1400.9	–	1389.8
x1 = 1	1607.1	1601.2	–	1588.1	1580.8	–	–	1561.1
